Measurements reported in PubChem BioAssay AID1768 (National Center for Advancing Translational Sciences (NCATS), 2009).
In all, about 270,000 compounds went through this assay and about 620 (0.23%) were called active. The shares of active, inactive and inconclusive entries below differ from those in the screen. Calls follow the shape of the dose curve; as a rule, active = well fitted inhibition curve with a large enough effect in the polarisation, with a control signal flat (not every such curve was filed as active); inconclusive = small, poorly fitted or top-dose-only effect, or effect the other way, or a change in a side signal; inactive = no such curve, though single readings can be large or run the other way; the % refers to the polarisation. Where the call is inconclusive, the potency comes from a doubtful curve fit. A note “side channel” means that the fit belongs to a control or component signal, not to the main read-out.

Biological target: Menin (Homo sapiens) (UniProt O00255)
Chain of UniProt O00255 (O00255 whole entry, looked up): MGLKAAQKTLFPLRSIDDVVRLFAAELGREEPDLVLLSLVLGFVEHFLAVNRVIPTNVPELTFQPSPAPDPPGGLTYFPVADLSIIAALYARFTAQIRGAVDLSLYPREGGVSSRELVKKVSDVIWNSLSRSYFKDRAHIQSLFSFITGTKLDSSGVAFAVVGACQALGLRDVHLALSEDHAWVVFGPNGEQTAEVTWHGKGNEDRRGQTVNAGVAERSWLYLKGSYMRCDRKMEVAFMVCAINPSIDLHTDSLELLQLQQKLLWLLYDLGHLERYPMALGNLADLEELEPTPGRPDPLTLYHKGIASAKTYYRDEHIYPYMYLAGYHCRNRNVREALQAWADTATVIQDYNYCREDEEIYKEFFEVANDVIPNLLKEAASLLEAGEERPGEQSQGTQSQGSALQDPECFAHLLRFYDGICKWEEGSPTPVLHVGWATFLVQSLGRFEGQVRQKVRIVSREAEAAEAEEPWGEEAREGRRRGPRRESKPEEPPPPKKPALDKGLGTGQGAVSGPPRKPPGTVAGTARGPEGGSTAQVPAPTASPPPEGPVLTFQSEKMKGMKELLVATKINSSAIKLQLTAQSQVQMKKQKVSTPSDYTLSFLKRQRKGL
Test: qHTS Assay for Inhibitors Targeting the Menin-MLL Interaction in MLL Related Leukemias: Competition With Texas Red Labeled MLL-derived Mutant Peptide
Settings: fluorescence polarization; series mostly up to 61.6 µM
Potency is read from the fitted curve at half-maximal effect; tags tell the direction and shape of the fitted curve or compound fluorescence and quenching.

Compound | Potency
Nc1ccccc1Sc1nc2ccccc2[nH]1 | inconclusive: 22.4 µM [quencher, side channel, single point]
CCN1CCN(CC(=O)c2ccc(C)cc2)CC1 | inconclusive: 28.2 µM [inhibitor, partial curve]
CCCCn1c(C(C)NC(=O)c2cccs2)nc2ccccc21 (stereo not drawn) | inactive
CCn1c(=O)c2ccccc2n(Cc2ccc([N+](=O)[O-])cc2)c1=O | inactive
N#Cc1ccc(C(=O)Nc2nnc(-c3cccs3)o2)cc1 | inconclusive: 28.2 µM [quencher, side channel, single point]
CN(C)c1ncc2nc(-c3cccs3)c(=O)n(C3CC3)c2n1 | inactive
CC1(C)Oc2cc(N)c([N+](=O)[O-])cc2O1 | inactive
CCOC(=O)C(C(C)=O)c1c(Br)c(O)c(O)c2c(C(=O)c3ccc(C)cc3)coc12 (stereo not drawn) | inactive
COc1ccc(N2CCN(C(=O)CCC(=O)N3CC(C)Oc4ccc(C)cc43)CC2)cc1 (stereo not drawn) | inconclusive: 0.631 µM [inhibitor, full curve, poor fit]
O=C(NCCCNc1ccc([N+](=O)[O-])cc1Cl)c1ccccc1F | inconclusive: 12.6 µM [quencher, side channel, partial curve]
CCCCN(C)CCNC(=O)CCn1nc(-c2ccc(C)cc2)ccc1=O | inconclusive: 12.6 µM [inhibitor, partial curve]
CCC(=O)C(C(=O)OC)[C@H](CCc1ccccc1)NC(=O)OC (stereo partly drawn) | inactive
CCC1=C[C@@H]2CN(C1)Cc1c([nH]c3ccccc13)[C@@](C(=O)OC)(c1cc3c(cc1OC)N(C)[C@@H]1[C@@](O)(C(=O)OC)[C@H](OC(C)=O)[C@]4(CC)C=CCN5CC[C@]31[C@@H]54)C2 | inactive
O=C(OC1CCCCC1)c1cc2ccccc2oc1=O | inconclusive: 28.2 µM [fluorescent, side channel, partial curve]
Cc1cc2nn(-c3cccc4ccccc34)nc2cc1NC(=O)c1cccs1 | inconclusive: 17.8 µM [quencher, side channel, partial curve]
O=C1CCCN1CN(C(=O)c1ccccc1)c1ccc(F)cc1 | inconclusive: 17.8 µM [inhibitor, single point]
CCOC(=O)C1CCCN(C(=O)c2c(-c3ccccc3Cl)noc2C)C1 (stereo not drawn) | inconclusive: 39.8 µM [inhibitor, single point]
Oc1c(C(c2ccc(Cl)cc2)N2CCCC2)cc(Cl)c2cccnc12 (stereo not drawn) | inactive
O=C(NCc1ccc(Cl)cc1)c1n[nH]c([N+](=O)[O-])c1Cl | inconclusive: 28.2 µM [quencher, side channel, single point]
Cc1ccc(S(=O)(=O)Nc2cccc3ccc(C)nc23)cc1 | inconclusive: 31.6 µM [fluorescent, side channel, partial curve]

Compound | Potency
O=[N+]([O-])c1ccc(N2CCN(c3ccc(O)cc3)CC2)c(Cl)c1 | inconclusive: 22.4 µM [quencher, side channel, partial curve]
C=CCn1c(SCc2c(C)noc2C)nc2sc(C)c(C)c2c1=O | inconclusive: 31.6 µM [fluorescent, side channel, single point]
CCn1c(SCc2ccccc2)nnc1C1CCN(S(=O)(=O)c2ccc(OC)cc2)CC1 | inconclusive: 5.62 µM [fluorescent, side channel, full curve, poor fit]
CCCC(C(=O)NCCC(C)C)N(Cc1ccccc1Cl)C(=O)c1snc(C(N)=O)c1N (stereo not drawn) | inconclusive: 39.8 µM [fluorescent, side channel, single point]
COc1cc(/C=C2\SC(=Nc3ccc(Cl)c(C(=O)O)c3)NC2=O)c(Br)c(Br)c1O | inconclusive: 15.8 µM [fluorescent, side channel, partial curve]
O=[N+]([O-])c1ccc(N/N=C/c2sc(N3CCOCC3)nc2-c2ccccc2)c(S(=O)(=O)Nc2ccc(Cl)cc2)c1 | inconclusive: 3.16 µM [quencher, side channel, full curve]
Cc1ccc2nc(/C(C#N)=C\c3ccc([N+](=O)[O-])o3)[nH]c2c1 | inconclusive: 8.91 µM [fluorescent, side channel, partial curve]
COc1ccc(NC2CC(=O)N(c3cccc([N+](=O)[O-])c3)C2=O)cc1 (stereo not drawn) | inconclusive: 28.2 µM [quencher, side channel, single point]
CC(=N\NC(=O)c1ccc([N+](=O)[O-])cc1)/C(=N/O)C(=O)Nc1ccccc1 | inconclusive: 11.2 µM [quencher, side channel, partial curve]
O=S(=O)(Nc1ccccc1Cl)c1ccc(F)cc1 | inconclusive: 8.91 µM [inhibitor, single point]
CCCCNC(=O)c1onc(CSc2cccc(Cl)c2)c1C(=O)O | inconclusive: 31.6 µM [quencher, side channel, single point]
Cc1c(NC2=C(Cl)C(=O)N(c3ccccc3)C2=O)c(=O)n(-c2ccccc2)n1C | inconclusive: 35.5 µM [quencher, side channel, single point]
COc1ccc(CNc2nc(-c3cccnc3)nn2C(=O)CC(C)C)cc1 | inconclusive: 25.1 µM [inhibitor, partial curve]
CCOCCCNC(=O)c1cc(Cl)c(NC(=O)C2=C(C)OCCS2)cc1OC | inconclusive: 15.8 µM [fluorescent, side channel, partial curve]
Cc1ccc(N(C(=O)c2ccccn2)C2(C(=O)NC3CCCC3)CCCCC2)cc1 | inconclusive: 7.08 µM [fluorescent, side channel, partial curve]
Nc1ccc(Br)c2c1C(=O)c1ccccc1C2=O | inconclusive: 20 µM [quencher, side channel, partial curve]
COc1ccc(-c2csc(NC(=S)NC(=O)c3cc4ccccc4o3)n2)cc1Br | inconclusive: 14.1 µM [quencher, side channel, partial curve]
COc1cccc(-c2ccc(C#N)c(SCC(=O)NCCc3cccc(Cl)c3)n2)c1 | inconclusive: 11.2 µM [inhibitor, partial curve]
O=C(CS(=O)CC(=O)Nc1cnc2ccccc2c1)Nc1ccc(Cl)cc1 (stereo not drawn) | inconclusive: 39.8 µM [inhibitor, single point]
COc1ccc(OC)c(-c2ccc(C(=O)O)o2)c1 | inactive

Compound | Potency
CCOc1ccc(NC(=O)c2cccc(NC(=O)c3ccccc3)c2)cc1 | inconclusive: 35.5 µM [fluorescent, side channel, single point]
CCOC(=O)c1[nH]c2cc3c(cc2c1CCCN1C(=O)c2ccccc2C1=O)OCCO3 | inconclusive: 31.6 µM [quencher, side channel, partial curve]
O=C(Nc1ccc2nc(-c3ccco3)c(-c3ccco3)nc2c1)N1CCCCCC1 | inconclusive: 12.6 µM [quencher, side channel, partial curve]
Cc1cc(=O)n(Cc2ccccc2)c2ccccc12 | inconclusive: 3.98 µM [inhibitor, single point]
CC(C)=CCc1c(O)c(CC=C(C)C)c2c(c1O)C(=O)CC(c1ccc(O)cc1)O2 (stereo not drawn) | inconclusive: 11.2 µM [quencher, side channel, partial curve]
Cn1cc(/C=C(\C#N)C(=O)Nc2ncc(Cc3ccc(Cl)cc3)s2)c2ccccc21 | inconclusive: 14.1 µM [inhibitor, partial curve]
CC1=CN2C(=N)/C(=C/c3ccc(Sc4ccc(C)cc4)o3)C(=O)N=C2S1 | inconclusive: 22.4 µM [quencher, side channel, single point]
CC(=O)Nc1ccc(S(=O)(=O)NCc2ccc(C(=O)NCc3ccc(Cl)cc3)cc2)cc1 | inconclusive: 39.8 µM [inhibitor, single point]
Cc1ccc(-c2csc(SCC(=O)Nc3cc(C)on3)n2)cc1 | inconclusive: 39.8 µM [inhibitor, single point]
COc1ccc(-c2noc(CSc3nnc(Cc4ccccc4)n3-c3ccc(Cl)cc3)n2)cc1 | inconclusive: 1.78 µM [fluorescent, side channel, full curve, poor fit]
O=C(Nc1cc(Cl)cc2c1[nH]c1cnccc12)c1cccnc1 | inconclusive: 31.6 µM [inhibitor, partial curve]
COc1cc(C(=S)N(C)C)ccc1O | inconclusive: 6.31 µM [fluorescent, single point]
COC(=O)c1cccc(Nc2c3c(nc4ccccc24)CCC3)c1 | inconclusive: 10 µM [inhibitor, partial curve]
COc1ccc(Oc2ncc3nc(-c4ccc(F)cc4)c(=O)n(CCC#N)c3n2)cc1 | inactive
COc1ccc(C(=O)/C=C/Nc2ccc(S(=O)(=O)Nc3onc(C)c3C)cc2)cc1 | inconclusive: 31.6 µM [quencher, side channel, single point]
CCOc1ccc(S(=O)(=O)c2c[nH]c3ccccc3c2=O)cc1 | inconclusive: 3.16 µM [quencher, side channel, full curve, poor fit]
Cn1c(NC(=O)C2c3ccccc3Oc3ccccc32)cc(=O)n(C)c1=O | inconclusive: 31.6 µM [quencher, side channel, single point]
CSc1cccc(NC(=O)Nc2ccccc2)c1 | inconclusive: 14.1 µM [quencher, side channel, partial curve]
